Data as given in article PMC4336329 (PLoS ONE, 2015).
Among all 310,000 compounds or so, about 14,000 (4.5%) showed an effect of 50% or more. Effects have a minus sign here. The list shows a part of the results.

Target: human ether-à-go-go-related gene (hERG) potassium channel (human, UniProt Q12809)
Assay: primary screen, population patch clamp on CHO cells stably expressing hERG
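Also: peak tail current of the secondary pulse compared with the same well before compound.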

human ether-à-go-go-related gene (hERG) potassium channel, sequence (Q12809 whole entry, looked up): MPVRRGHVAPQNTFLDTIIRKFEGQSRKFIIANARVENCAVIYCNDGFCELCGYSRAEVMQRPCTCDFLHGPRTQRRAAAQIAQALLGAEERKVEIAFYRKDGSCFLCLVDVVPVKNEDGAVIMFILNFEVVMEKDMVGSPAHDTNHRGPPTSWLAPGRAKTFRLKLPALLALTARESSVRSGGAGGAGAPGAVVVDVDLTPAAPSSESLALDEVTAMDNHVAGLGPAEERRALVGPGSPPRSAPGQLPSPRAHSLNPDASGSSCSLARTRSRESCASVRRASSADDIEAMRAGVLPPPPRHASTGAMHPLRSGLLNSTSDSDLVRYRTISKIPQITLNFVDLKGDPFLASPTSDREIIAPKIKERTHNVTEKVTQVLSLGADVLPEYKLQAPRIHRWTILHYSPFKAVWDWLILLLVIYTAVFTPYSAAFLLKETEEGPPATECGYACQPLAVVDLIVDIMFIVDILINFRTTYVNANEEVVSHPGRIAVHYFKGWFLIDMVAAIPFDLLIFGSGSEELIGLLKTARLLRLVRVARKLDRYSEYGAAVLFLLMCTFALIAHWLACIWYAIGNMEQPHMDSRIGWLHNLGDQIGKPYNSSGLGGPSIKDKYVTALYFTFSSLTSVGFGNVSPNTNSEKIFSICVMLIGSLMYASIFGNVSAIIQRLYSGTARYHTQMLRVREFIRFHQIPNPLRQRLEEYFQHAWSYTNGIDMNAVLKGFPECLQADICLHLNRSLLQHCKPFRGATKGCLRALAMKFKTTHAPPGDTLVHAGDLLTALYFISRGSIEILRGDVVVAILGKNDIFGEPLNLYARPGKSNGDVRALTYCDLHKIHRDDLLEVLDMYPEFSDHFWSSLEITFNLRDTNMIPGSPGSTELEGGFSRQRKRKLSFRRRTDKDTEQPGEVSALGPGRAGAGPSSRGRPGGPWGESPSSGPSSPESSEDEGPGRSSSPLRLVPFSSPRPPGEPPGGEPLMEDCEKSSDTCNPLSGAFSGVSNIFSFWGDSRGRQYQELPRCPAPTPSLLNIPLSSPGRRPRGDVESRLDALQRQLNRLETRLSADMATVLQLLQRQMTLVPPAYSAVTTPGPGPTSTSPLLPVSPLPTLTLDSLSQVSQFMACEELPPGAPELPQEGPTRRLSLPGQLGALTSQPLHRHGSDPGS

Q: With Cc1ccc(C)c(OCC(=O)Nc2cc(C)on2)c1 as the molecule, how does the “hERG current change (%, negative = inhibition) at 10uM” value read?
A: The value was -2.17%.

Q: Which “hERG current change (%, negative = inhibition) at 10uM” value does the source give for COc1ccc(C(=O)Nc2ccnn2C2CCN(C(=O)CCC(F)(F)F)CC2)cc1 here?
A: Its value is 20.3%.

Q: CCOc1ccc(CN2CCN(Cc3c(C)nn(CC)c3C)CC2CCO)cc1 (stereo not drawn) was tested. Which “hERG current change (%, negative = inhibition) at 10uM” value did it give?
A: The value was -45%.

Q: With O=C(NCc1cccs1)C(NS(=O)(=O)c1cccc2nsnc12)c1ccccc1 (stereo not drawn) as the molecule, how does the “hERG current change (%, negative = inhibition) at 10uM” value read?
A: The value was -15.3%.

Q: COc1ccc(S(=O)(=O)N2CCN(Cc3ccc(Cl)cc3)CC2)cc1 was tested. Which “hERG current change (%, negative = inhibition) at 10uM” value did it give?
A: Its value is -10.8%.

Q: CCOC(=O)C1CCN(c2c(NCCCN(CC)c3ccccc3)c(=O)c2=O)CC1 was tested. Which “hERG current change (%, negative = inhibition) at 10uM” value did it give?
A: The value was -19.9%.

Q: With O=C(COC(=O)c1ccc(Cl)nc1)c1ccc2c(c1)OCCO2 as the molecule, how does the “hERG current change (%, negative = inhibition) at 10uM” value read?
A: Its value is 8.63%.

Q: For O=C(CN1C(=O)CSC1=O)Nc1ccc(C(=O)O)cc1, which “hERG current change (%, negative = inhibition) at 10uM” value is on record?
A: The value was 8.07%.

Q: Cc1ccc(S(=O)(=O)NCC(=O)NC2CC2)cc1 was tested. Which “hERG current change (%, negative = inhibition) at 10uM” value did it give?
A: Its value is 13.5%.

Q: With Cc1ccc(C)c(C(=O)CSc2nnc(C)s2)c1 as the molecule, how does the “hERG current change (%, negative = inhibition) at 10uM” value read?
A: The value was 5.28%.

Q: How did the “hERG current change (%, negative = inhibition) at 10uM” value turn out when O=C(CCC(=O)c1cccs1)OCC(=O)N1CCN(C(=O)c2ccco2)CC1 was run?
A: Its value is -2.34%.

Q: CC(C)C[C@H](NC(=O)[C@H](Cc1ccccc1)n1c(=O)[nH]c2ccccc2c1=O)C(=O)N1CCC[C@H]1C(=O)O was tested. Which “hERG current change (%, negative = inhibition) at 10uM” value did it give?
A: Its value is 6.16%.

Q: For Cc1nnc(SCc2ccccc2CSc2nnc(C)s2)s1, which “hERG current change (%, negative = inhibition) at 10uM” value is on record?
A: The value was -6.01%.

Q: Which “hERG current change (%, negative = inhibition) at 10uM” value does the source give for O=C1CC2(CCCC2)Oc2ccc(F)cc21 here?
A: The value was -8.58%.

Q: For COc1cccc(N=Nc2c(N)[nH]n3c(=O)c4c(nc23)CCCC4)c1, which “hERG current change (%, negative = inhibition) at 10uM” value is on record?
A: The value was 12.2%.

Q: Which “hERG current change (%, negative = inhibition) at 10uM” value does the source give for COc1ccc(Cl)cc1C(=O)n1cnc2ccccc21 here?
A: The value was 11.8%.

Q: How did the “hERG current change (%, negative = inhibition) at 10uM” value turn out when Cc1cccc(-n2ncc3c2CCCC3NC(=O)c2ccc[n+]([O-])c2)c1C (stereo not drawn) was run?
A: The value was 7.99%.

Q: For C=CCn1c(SCc2cc(=O)n3cc(C)ccc3n2)nnc1-c1cccc(C)c1, which “hERG current change (%, negative = inhibition) at 10uM” value is on record?
A: Its value is -35.4%.

Q: For Cc1c(Cl)cccc1NC(=O)CC1Oc2ccccc2NC1=O (stereo not drawn), which “hERG current change (%, negative = inhibition) at 10uM” value is on record?
A: Its value is 16.5%.

Q: Which “hERG current change (%, negative = inhibition) at 10uM” value does the source give for Cc1cccc(C)c1OCC(O)Cn1nnc2ccccc21 (stereo not drawn) here?
A: Its value is 1.01%.

Q: Which “hERG current change (%, negative = inhibition) at 10uM” value does the source give for CCCOc1ccc2ccccc2c1/C=N/n1c(C)nnc1-n1nc(C)cc1C here?
A: The value was -6.5%.

Q: With CCOc1ccc(Nc2nc3ccccc3n3nnnc23)cc1 as the molecule, how does the “hERG current change (%, negative = inhibition) at 10uM” value read?
A: Its value is 7.32%.

Q: How did the “hERG current change (%, negative = inhibition) at 10uM” value turn out when COc1cccc(N2[C@@H](CC(=O)O)c3ccccc3S2(=O)=O)c1 was run?
A: Its value is 16.7%.

Q: How did the “hERG current change (%, negative = inhibition) at 10uM” value turn out when COc1ccccc1C(=O)NNC(=O)C(=O)NC(C)C was run?
A: Its value is 17.8%.

Q: For OC[C@@H](O)C1OC2NC(=S)OC2C1O (stereo partly drawn), which “hERG current change (%, negative = inhibition) at 10uM” value is on record?
A: The value was 9.7%.

Q: Which “hERG current change (%, negative = inhibition) at 10uM” value does the source give for Cc1ccc(NC(=O)COC(=O)/C=C/c2ccccc2)cc1S(=O)(=O)N1CCOCC1 here?
A: Its value is -14.2%.

Q: Which “hERG current change (%, negative = inhibition) at 10uM” value does the source give for C/C(=N\O)C(=O)NCCN1CCCCC1 here?
A: Its value is -10.2%.

Q: How did the “hERG current change (%, negative = inhibition) at 10uM” value turn out when O=C(Nc1nc(-c2ccccn2)cs1)c1ccccc1-n1cnnn1 was run?
A: The value was -45.4%.

Q: For CC1=CC(C)(C)Nc2ccc(OC(=O)C(Cc3ccccc3)N3C(=O)C4CCCCC4C3=O)cc21 (stereo not drawn), which “hERG current change (%, negative = inhibition) at 10uM” value is on record?
A: Its value is 2.8%.

Q: How did the “hERG current change (%, negative = inhibition) at 10uM” value turn out when COC(=O)c1ccc2nc(NC(=O)C(C)C)sc2c1 was run?
A: Its value is -3.98%.

Q: With COc1cccc(C2=CC(=O)C[C@H](c3ccc(F)cc3)C2)c1 as the molecule, how does the “hERG current change (%, negative = inhibition) at 10uM” value read?
A: Its value is -14.9%.

Q: COc1ccc(Cl)cc1NC(=O)C(C)OC(=O)C1=NNC(=O)CC1 (stereo not drawn) was tested. Which “hERG current change (%, negative = inhibition) at 10uM” value did it give?
A: Its value is -7.01%.

Q: For CCOc1cccc(C(=O)Nc2ccc3ccccc3c2)c1, which “hERG current change (%, negative = inhibition) at 10uM” value is on record?
A: Its value is 13%.

Q: Which “hERG current change (%, negative = inhibition) at 10uM” value does the source give for Cc1cc(C)cc(N(C(=O)CNC(=O)c2cccs2)C(C(=O)NC2CCCC2)c2cccnc2)c1 (stereo not drawn) here?
A: Its value is 12.3%.

Q: With CCN(CC(=O)NCc1cccs1)C(=O)c1ccc(S(=O)(=O)N(C)C)cc1 as the molecule, how does the “hERG current change (%, negative = inhibition) at 10uM” value read?
A: Its value is 48.6%.

Q: For CCCc1n(CC(O)COC2CCCCC2)c2ccccc2[n+]1C.[I-] (stereo not drawn), which “hERG current change (%, negative = inhibition) at 10uM” value is on record?
A: Its value is -6.78%.

Q: For CC(=O)Nc1ccc(N/C=C/C(=O)c2ccc(C)cc2)cc1, which “hERG current change (%, negative = inhibition) at 10uM” value is on record?
A: The value was 18.1%.

Q: For c1ccc(OCCSc2nnc3sc4ccccc4n23)cc1, which “hERG current change (%, negative = inhibition) at 10uM” value is on record?
A: The value was -13.7%.

Q: Nc1[nH]nc2nc3ccccc3cc12 was tested. Which “hERG current change (%, negative = inhibition) at 10uM” value did it give?
A: The value was 23%.

Q: COC(=O)CC(NC(=O)c1ccco1)c1ccc(C(C)C)cc1 (stereo not drawn) was tested. Which “hERG current change (%, negative = inhibition) at 10uM” value did it give?
A: The value was -16.6%.

Q: Which “hERG current change (%, negative = inhibition) at 10uM” value does the source give for O=C(Nc1ccsn1)c1ccc(Cl)cc1Cl here?
A: Its value is 20.7%.

Q: For COc1ccc(CN2CCNC(=O)C2CC(=O)N2CCCCO2)c(OC)c1 (stereo not drawn), which “hERG current change (%, negative = inhibition) at 10uM” value is on record?
A: Its value is 13.9%.

Q: How did the “hERG current change (%, negative = inhibition) at 10uM” value turn out when C/C=C(/C)C(=O)O[C@@H]1c2cc3c(c4c2[C@@]2(CO4)C(=O)C(OC)=C(OC)C=C2C[C@@H](C)[C@H]1C)OCO3 was run?
A: The value was -5.17%.

Q: With CN(C(=O)c1cccc(Cl)c1)C1CCCN(Cc2ccccc2F)C1 (stereo not drawn) as the molecule, how does the “hERG current change (%, negative = inhibition) at 10uM” value read?
A: The value was 0.373%.

Q: How did the “hERG current change (%, negative = inhibition) at 10uM” value turn out when Cc1ccnc(N2CCC(C(=O)Nc3ccc4c(c3)OCCO4)CC2)n1 was run?
A: The value was 9.83%.
